The supplement of paper PMC10320760
This is a noisy data set.

B1: Ydj1; a variant is named by its letters at X, in order (parent)
chain: MVKETKFYDILGVPVTATDVEIKKAYRKCALKYHPDKNPSEEAAEKFKEASAAYEILSDPEKRDIYDQFGEDGLSGAGGAGGFPGGGFGFGDDIFSQFFGAGGAQRPRGPQRGKDIKHEISASLEELYKGRTAKLALNKQILCKECEGRGGKKGAVKKCTSCNGQGIKFVTRQMGPMIQRFQTECDVCHGTGDIIDPKDRCKSCNGKKVENERKILEVHVEPGMKDGQRIVFKGEADQAPDVIPGDVVFIVSERPHKSFKRDGDDLVYEAEIDLLTAIAGGEFALEHVSGDWLKVGIVPGEVIAPGMRKVIEGKGMPIPKYGGYGNLIIKFTIKFPENHFTSEENLKKLEEILPPRIVPAIPKKATVDECVLADFDPAKYNRTRASRGGANYDSDEEEQGGEGVQCXXX

Variants of: B1
Assay: enrichment factor, frequency at 37 °C / frequency at 25 °C (thermotolerance selection) (ratio); higher = more growth at 37 °C, higher likelihood of farnesylation
Conditions: with Saccharomyces cerevisiae ydj1Δ (yWS304); selective temperature 37 °C; reference temperature 25 °C
Experimental: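 Pooled library of all 8,000 Ydj1-CXXX C-terminal motif variants (native CASQ replaced by C + three variable residues, one codon per amino acid) expressed from a CEN plasmid in S. cerevisiae ydj1Δ (yWS304). The library was grown in SC-Ura liquid to A600 ~2 (~8 generations) at permissive 25 °C or selective 37 °C. Reads from 8 and 7 replicates were pooled and variants counted by NGS. Enrichment factor = frequency at 37 °C / frequency at 25 °C, with a +1 correction; it reports Ydj1-dependent thermotolerance, used as a read-out of farnesylation by yeast FTase.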
AGY showed an enrichment factor of 1.7. AGW was tested, and the enrichment factor was 0.606. SGV was tested, and the enrichment factor was 1.66. Variant SGW has an enrichment factor of 0.933. For SGY, the enrichment factor was 1.66. TGY showed an enrichment factor of 1.69. TGW gave an enrichment factor of 1.63. With TGV the enrichment factor was 1.54. EGW gave an enrichment factor of 1.7. EGY showed an enrichment factor of 1.4. PGW gave an enrichment factor of 1.28. PGY gave an enrichment factor of 1.78. With PGV the enrichment factor was 1.42. With WHE the enrichment factor was 2.02. With WHF the enrichment factor was 1.72. In the case of WHA, the enrichment factor is reported as 2.38. In the case of WHD, the enrichment factor is reported as 1.07. With WHC the enrichment factor was 1.33. Work on CGW yielded an enrichment factor of 0.108. With CGY the enrichment factor was 0.072. Variant CGV has an enrichment factor of 0.744. Variant FHA has an enrichment factor of 3.49. For FHE, the enrichment factor was 0.328. FHC gave an enrichment factor of 1.63. FHD gave an enrichment factor of 0.286. FHG was tested, and the enrichment factor was 1.1. In the case of FHF, the enrichment factor is reported as 1.49. Work on SHE yielded an enrichment factor of 0.536. SHD was tested, and the enrichment factor was 0.235. With SHC the enrichment factor was 0.162. For SHA, the enrichment factor was 1.81. Variant SHF has an enrichment factor of 1.56. QHA was tested, and the enrichment factor was 2.14. For QHF, the enrichment factor was 1.98. QHE showed an enrichment factor of 1.24. QHC showed an enrichment factor of 2.42. Work on QHD yielded an enrichment factor of 0.444. Work on DHA yielded an enrichment factor of 1.66. With DHD the enrichment factor was 0.0991. DHF gave an enrichment factor of 0.276. For DHE, the enrichment factor was 0.182. Work on DHC yielded an enrichment factor of 1.07. NGY gave an enrichment factor of 1.45. NGW gave an enrichment factor of 1.56. NGV gave an enrichment factor of 1.31. Variant IGW has an enrichment factor of 1.38. Variant IGV has an enrichment factor of 1.44. For IGY, the enrichment factor was 0.934. VHE showed an enrichment factor of 1.7. With VHF the enrichment factor was 2.09. VHD showed an enrichment factor of 2.1. Work on VHA yielded an enrichment factor of 1.6. VHC showed an enrichment factor of 2.79. YGY gave an enrichment factor of 0.852. YGV showed an enrichment factor of 0.795. Work on YGW yielded an enrichment factor of 1.63. HGV was tested, and the enrichment factor was 0.664. HGW showed an enrichment factor of 1.91. For HGY, the enrichment factor was 1.49. With LGW the enrichment factor was 1.02. In the case of LGV, the enrichment factor is reported as 1.18. Work on LGY yielded an enrichment factor of 1.05. For WGV, the enrichment factor was 1.59. With WGW the enrichment factor was 1.37. Work on WGY yielded an enrichment factor of 1.59. Work on QGY yielded an enrichment factor of 1.98. QGV showed an enrichment factor of 1.79. For QGW, the enrichment factor was 1.26. In the case of RGV, the enrichment factor is reported as 1.4. RGY gave an enrichment factor of 1.2. RGW was tested, and the enrichment factor was 0.838. In the case of LHF, the enrichment factor is reported as 1.32. LHD gave an enrichment factor of 1.01. For LHE, the enrichment factor was 1.58. In the case of LHC, the enrichment factor is reported as 0.858. In the case of LHG, the enrichment factor is reported as 1.22. Variant LHA has an enrichment factor of 1.61. YHA gave an enrichment factor of 5.63. YHC gave an enrichment factor of 3.13. With YHF the enrichment factor was 1.22. Work on YHE yielded an enrichment factor of 0.17. For YHD, the enrichment factor was 0.228. KGY gave an enrichment factor of 1.51. Variant KGW has an enrichment factor of 1.51. KGV showed an enrichment factor of 0.712. GGW gave an enrichment factor of 1.92. With GGY the enrichment factor was 1.02. With GGV the enrichment factor was 0.609. For THC, the enrichment factor was 0.0622. Variant THD has an enrichment factor of 0.763. THE showed an enrichment factor of 1.39. THA showed an enrichment factor of 1.94. For THF, the enrichment factor was 2.13. For PHC, the enrichment factor was 1.69. For PHD, the enrichment factor was 0.334. PHE gave an enrichment factor of 1.28. Work on PHA yielded an enrichment factor of 2.24. PHF gave an enrichment factor of 2.06. With FGY the enrichment factor was 1.02. Work on FGW yielded an enrichment factor of 0.815. In the case of HHG, the enrichment factor is reported as 1.33. HHD gave an enrichment factor of 0.221. HHF gave an enrichment factor of 1.42. HHA gave an enrichment factor of 2.8. HHC was tested, and the enrichment factor was 2.38. HHE gave an enrichment factor of 1.52. For DGV, the enrichment factor was 0.185. DGY showed an enrichment factor of 0.132. Variant DGW has an enrichment factor of 0.463. With NHF the enrichment factor was 1.68. For NHA, the enrichment factor was 2.08. In the case of NHD, the enrichment factor is reported as 0.224. Work on NHG yielded an enrichment factor of 1.13. With NHC the enrichment factor was 1.44. NHE gave an enrichment factor of 0.498. With CHF the enrichment factor was 0.402. CHD gave an enrichment factor of 1.09. For CHC, the enrichment factor was 0.339. CHE was tested, and the enrichment factor was 1.7. With CHA the enrichment factor was 1.28. GHG gave an enrichment factor of 0.455. With GHA the enrichment factor was 1.5. In the case of GHF, the enrichment factor is reported as 0.66. GHE showed an enrichment factor of 0.346. Variant GHC has an enrichment factor of 1.56. Work on GHD yielded an enrichment factor of 0.161. AHD showed an enrichment factor of 0.719. AHG gave an enrichment factor of 1.54. For AHE, the enrichment factor was 1.25. AHA gave an enrichment factor of 1.41. Variant AHC has an enrichment factor of 1.19. AHF gave an enrichment factor of 2.57. With KHC the enrichment factor was 1.95. Work on KHG yielded an enrichment factor of 0.92. Work on KHE yielded an enrichment factor of 1.38. Variant KHA has an enrichment factor of 1.6. With KHF the enrichment factor was 0.764. KHD showed an enrichment factor of 0.982. Variant VGW has an enrichment factor of 1.24. Work on VGV yielded an enrichment factor of 1.58. Work on VGY yielded an enrichment factor of 1.63. For EHD, the enrichment factor was 0.26. With EHG the enrichment factor was 1.35. In the case of EHE, the enrichment factor is reported as 0.386. Variant EHA has an enrichment factor of 1.48. EHC showed an enrichment factor of 1.75. In the case of EHF, the enrichment factor is reported as 1.54. MHC showed an enrichment factor of 1.09. In the case of MHD, the enrichment factor is reported as 0.205. Work on MHA yielded an enrichment factor of 2.11. MHG gave an enrichment factor of 1.67. Work on MHE yielded an enrichment factor of 0.948. MHF gave an enrichment factor of 2.02. IHD was tested, and the enrichment factor was 1.06. In the case of IHG, the enrichment factor is reported as 1.36. For IHC, the enrichment factor was 2.1. Variant IHE has an enrichment factor of 1.45. With IHA the enrichment factor was 1.41. For IHF, the enrichment factor was 2.05. RHE showed an enrichment factor of 0.941. RHD showed an enrichment factor of 1.27. RHF was tested, and the enrichment factor was 1.16. For RHA, the enrichment factor was 1.45. Variant RHC has an enrichment factor of 1.54. MGW was tested, and the enrichment factor was 0.643. Work on MGY yielded an enrichment factor of 1.5. With MGV the enrichment factor was 1.26.
